These are yes or no findings as the source states them, for the method shown. For some of these results: Binding seen in cells or lysates may run through a third protein. Some binding calls cover weakened binding; strength is not graded here. For some of these results: Sequences can lack the tags named with a protein. Values belong to the substance of their own block, whether it stands above or below them.
Tests used:
[1] = target: CCNY, yeast two-hybrid fusion (not stated (cDNA from cell lines)) (UniProt Q8ND76); assay: two-hybrid; Gal4 system (Matchmaker Gold); by the legend cyclins as Gal4 DNA-BD baits and CDKs as Gal4 AD preys; strains Y187 and AH109 mated; growth on -Leu/-Trp/-His/-Ade selection medium, 30 °C; also spot-seeding of serial dilutions
[2] = target: T1, cyclin I (CCNI), yeast two-hybrid fusion (human) (UniProt Q14094); assay: as above
T1 sequence: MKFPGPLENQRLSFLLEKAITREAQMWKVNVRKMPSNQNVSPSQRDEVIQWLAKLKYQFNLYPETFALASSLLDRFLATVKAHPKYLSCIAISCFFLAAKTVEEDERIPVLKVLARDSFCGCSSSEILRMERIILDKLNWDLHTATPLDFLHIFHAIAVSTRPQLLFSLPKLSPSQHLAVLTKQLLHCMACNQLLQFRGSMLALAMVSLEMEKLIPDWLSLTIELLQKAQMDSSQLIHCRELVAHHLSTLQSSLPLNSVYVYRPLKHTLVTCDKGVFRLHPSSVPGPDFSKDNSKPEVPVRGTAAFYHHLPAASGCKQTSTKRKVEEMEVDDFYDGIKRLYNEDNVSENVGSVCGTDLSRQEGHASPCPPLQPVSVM

Amino acid sequences for entries named in this document (tags omitted). A change or cut given only in a name is not applied to a line headed by its entry.
UniProt Q8ND76: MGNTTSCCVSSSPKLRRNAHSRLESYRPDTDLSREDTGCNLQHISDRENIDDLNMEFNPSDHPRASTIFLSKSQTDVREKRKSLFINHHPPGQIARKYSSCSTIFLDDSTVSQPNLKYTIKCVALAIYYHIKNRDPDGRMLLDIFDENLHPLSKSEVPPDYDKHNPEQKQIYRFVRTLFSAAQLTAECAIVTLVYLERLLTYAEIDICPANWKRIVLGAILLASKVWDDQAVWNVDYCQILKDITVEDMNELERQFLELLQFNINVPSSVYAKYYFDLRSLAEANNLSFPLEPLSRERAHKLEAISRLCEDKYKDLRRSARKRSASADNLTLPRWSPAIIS
UniProt Q8N7R7: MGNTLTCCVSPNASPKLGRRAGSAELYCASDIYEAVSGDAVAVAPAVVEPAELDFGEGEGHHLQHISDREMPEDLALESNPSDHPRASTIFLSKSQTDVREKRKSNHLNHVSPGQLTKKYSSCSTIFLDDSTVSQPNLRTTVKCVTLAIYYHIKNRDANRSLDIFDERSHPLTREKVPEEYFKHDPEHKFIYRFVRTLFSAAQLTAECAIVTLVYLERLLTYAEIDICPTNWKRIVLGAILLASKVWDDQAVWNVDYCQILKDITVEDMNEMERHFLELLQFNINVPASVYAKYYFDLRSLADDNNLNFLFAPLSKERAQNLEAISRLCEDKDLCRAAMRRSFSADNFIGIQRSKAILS
UniProt P24385: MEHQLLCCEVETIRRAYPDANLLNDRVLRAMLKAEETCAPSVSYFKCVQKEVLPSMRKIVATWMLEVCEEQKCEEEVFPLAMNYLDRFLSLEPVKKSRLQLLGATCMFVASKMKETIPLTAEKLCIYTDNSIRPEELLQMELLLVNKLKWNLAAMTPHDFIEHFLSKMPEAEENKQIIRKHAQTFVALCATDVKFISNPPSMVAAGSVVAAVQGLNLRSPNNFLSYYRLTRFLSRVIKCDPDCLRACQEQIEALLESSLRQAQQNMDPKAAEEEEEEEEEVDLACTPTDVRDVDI
UniProt O94921: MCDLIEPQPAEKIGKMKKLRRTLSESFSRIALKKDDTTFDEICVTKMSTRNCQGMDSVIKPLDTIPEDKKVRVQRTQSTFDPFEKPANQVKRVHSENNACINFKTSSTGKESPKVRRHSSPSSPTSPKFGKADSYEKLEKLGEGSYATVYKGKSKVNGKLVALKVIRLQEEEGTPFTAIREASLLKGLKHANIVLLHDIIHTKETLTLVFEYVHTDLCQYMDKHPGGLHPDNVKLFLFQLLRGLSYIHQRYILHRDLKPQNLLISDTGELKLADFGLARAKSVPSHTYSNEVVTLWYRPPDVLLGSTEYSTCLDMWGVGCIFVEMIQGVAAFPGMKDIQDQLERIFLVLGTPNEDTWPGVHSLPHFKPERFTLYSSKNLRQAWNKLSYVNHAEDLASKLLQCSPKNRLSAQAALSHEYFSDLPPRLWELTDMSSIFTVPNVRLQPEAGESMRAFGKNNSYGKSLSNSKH
UniProt Q96Q40: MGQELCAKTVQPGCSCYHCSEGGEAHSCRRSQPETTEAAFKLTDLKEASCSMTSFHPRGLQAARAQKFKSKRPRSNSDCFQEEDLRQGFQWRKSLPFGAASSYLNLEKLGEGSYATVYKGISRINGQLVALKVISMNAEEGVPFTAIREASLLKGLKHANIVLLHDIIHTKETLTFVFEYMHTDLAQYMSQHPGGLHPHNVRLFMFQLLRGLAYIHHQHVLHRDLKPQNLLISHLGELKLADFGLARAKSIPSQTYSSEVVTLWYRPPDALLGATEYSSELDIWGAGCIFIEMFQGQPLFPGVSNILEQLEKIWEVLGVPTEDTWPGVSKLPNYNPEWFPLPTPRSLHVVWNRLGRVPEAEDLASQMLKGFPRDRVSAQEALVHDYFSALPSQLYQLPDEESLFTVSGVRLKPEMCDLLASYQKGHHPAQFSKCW
UniProt Q00536: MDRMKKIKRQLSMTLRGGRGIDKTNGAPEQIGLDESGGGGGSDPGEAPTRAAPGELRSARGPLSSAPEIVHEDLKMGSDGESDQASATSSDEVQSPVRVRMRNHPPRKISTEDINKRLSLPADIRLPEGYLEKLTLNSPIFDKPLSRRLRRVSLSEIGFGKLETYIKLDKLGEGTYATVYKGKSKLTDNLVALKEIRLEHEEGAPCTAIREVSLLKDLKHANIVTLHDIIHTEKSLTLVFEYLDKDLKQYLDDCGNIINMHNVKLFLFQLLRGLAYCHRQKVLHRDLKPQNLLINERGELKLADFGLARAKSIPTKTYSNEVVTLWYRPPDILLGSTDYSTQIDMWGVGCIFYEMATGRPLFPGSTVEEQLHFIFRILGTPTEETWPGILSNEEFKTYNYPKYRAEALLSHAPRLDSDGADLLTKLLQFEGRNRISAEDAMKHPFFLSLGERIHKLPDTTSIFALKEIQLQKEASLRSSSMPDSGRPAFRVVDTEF
UniProt Q00534: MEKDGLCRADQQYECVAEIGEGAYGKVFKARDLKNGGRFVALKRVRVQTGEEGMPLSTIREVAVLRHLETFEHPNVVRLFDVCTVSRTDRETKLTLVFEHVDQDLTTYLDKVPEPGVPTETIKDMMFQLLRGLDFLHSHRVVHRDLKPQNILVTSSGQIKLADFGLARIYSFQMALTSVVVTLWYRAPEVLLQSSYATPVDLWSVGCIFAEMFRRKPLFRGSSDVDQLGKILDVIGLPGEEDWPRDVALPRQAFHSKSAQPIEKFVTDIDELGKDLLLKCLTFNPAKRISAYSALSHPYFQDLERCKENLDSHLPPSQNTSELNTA
UniProt Q00537: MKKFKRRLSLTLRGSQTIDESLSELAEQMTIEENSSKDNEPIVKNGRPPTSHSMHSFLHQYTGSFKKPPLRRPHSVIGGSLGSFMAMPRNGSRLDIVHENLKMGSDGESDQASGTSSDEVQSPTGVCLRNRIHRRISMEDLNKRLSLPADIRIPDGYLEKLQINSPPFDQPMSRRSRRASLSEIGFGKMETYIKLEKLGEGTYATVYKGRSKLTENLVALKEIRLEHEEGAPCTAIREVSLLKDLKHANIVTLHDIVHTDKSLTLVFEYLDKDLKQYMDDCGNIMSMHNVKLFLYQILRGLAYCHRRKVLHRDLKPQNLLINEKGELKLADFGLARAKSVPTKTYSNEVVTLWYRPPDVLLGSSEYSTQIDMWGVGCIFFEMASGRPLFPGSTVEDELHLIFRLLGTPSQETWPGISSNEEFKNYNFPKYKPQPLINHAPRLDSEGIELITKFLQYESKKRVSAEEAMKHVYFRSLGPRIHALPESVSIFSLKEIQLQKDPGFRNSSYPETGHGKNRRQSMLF
UniProt Q07002: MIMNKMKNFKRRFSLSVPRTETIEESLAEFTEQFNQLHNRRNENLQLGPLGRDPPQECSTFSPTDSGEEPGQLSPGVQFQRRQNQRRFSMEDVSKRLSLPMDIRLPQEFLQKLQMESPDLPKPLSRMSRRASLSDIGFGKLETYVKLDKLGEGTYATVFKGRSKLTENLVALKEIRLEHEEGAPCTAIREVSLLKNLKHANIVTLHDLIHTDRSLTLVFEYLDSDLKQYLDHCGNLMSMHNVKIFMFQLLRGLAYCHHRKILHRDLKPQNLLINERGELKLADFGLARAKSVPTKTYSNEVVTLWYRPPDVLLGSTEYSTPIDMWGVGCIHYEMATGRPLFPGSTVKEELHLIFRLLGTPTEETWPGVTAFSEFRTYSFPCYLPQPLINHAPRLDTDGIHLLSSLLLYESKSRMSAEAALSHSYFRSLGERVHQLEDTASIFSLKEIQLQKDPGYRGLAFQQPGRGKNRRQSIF
UniProt F1MA87: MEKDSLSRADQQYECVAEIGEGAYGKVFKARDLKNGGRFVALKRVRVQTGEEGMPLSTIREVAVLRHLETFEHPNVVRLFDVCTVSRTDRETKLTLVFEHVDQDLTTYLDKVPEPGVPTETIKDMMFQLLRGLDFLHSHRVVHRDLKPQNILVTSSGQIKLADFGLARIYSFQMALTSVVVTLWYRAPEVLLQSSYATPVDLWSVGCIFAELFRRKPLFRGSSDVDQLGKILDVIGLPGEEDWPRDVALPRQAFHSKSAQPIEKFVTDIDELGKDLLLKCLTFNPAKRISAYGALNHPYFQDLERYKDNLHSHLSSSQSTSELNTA

[3] = target: CCNYL1, yeast two-hybrid fusion (not stated (cDNA from cell lines)) (UniProt Q8N7R7); assay: as above
[4] = target: SPY1, yeast two-hybrid fusion (not stated (cDNA from cell lines)) (UniProt Q5MJ70); assay: as above
[5] = target: T2, CCNI construct with a different tag (human) (UniProt Q14094); assay: co-IP; immunoprecipitation of a CCNI construct with a different tag (Fig. S4B); cells and antibody not given
T2 sequence: T1 sequence

CCNI-Flag (human) = target: T3, CCNI-Flag (human) (UniProt Q14094); assay: co-IP; A549 cells transduced with Flag-tagged cyclins; extract (3–5 mg) with anti-Flag antibody-bound beads, 14–15 h, 4 °C; blot for CDK6
T3 sequence: T1 sequence

[6] = target: T4, recombinant GST-CCNI (human) (UniProt Q14094); assay: pull-down; trapping assay: GST-cyclins on Glutathion-Sepharose resin incubated with extract of EBV-immortalized lymphocytes, 4 h, 4 °C; blot for CDK6; only the target purified
T4 sequence: T1 sequence

[7] = target: T5, CDK-binding-deficient CCNI mutant E103A, yeast two-hybrid fusion (human) (UniProt Q14094); assay: two-hybrid; Gal4 system (Matchmaker Gold); by the legend cyclins as Gal4 DNA-BD baits and CDKs as Gal4 AD preys; strains Y187 and AH109 mated; growth on -Leu/-Trp/-His/-Ade selection medium, 30 °C; also spot-seeding of serial dilutions
T5 sequence: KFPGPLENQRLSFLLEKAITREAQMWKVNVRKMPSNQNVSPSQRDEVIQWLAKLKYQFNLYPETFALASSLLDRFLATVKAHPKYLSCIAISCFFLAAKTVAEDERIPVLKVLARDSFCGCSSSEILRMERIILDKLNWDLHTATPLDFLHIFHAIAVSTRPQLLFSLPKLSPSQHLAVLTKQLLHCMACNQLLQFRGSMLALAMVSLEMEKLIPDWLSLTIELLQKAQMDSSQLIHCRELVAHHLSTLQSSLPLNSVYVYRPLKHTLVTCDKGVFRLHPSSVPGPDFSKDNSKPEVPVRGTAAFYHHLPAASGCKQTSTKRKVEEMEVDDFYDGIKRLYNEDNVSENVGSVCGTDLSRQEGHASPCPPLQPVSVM

[8] = target: N-terminal Flag-tagged SPY1 (not stated (cDNA from cell lines)) (UniProt Q5MJ70); assay: co-IP; HEK293T cells overexpressing Flag-SPY1; immunoprecipitation with anti-Flag antibody; western blot with an antibody against CDK16
[9] = target: GST-fused SPY1 (not stated (cDNA from cell lines)) (UniProt Q5MJ70); assay: pull-down; trapping assay: GST-SPY1 on Glutathion-Sepharose resin incubated with extracts of A549 and U87 cells, 16 h, 4 °C; blot for CDK16; only the target purified
[10] = target: GST-cyclin D (CCND1) (human) (UniProt P24385); assay: pull-down; trapping assay: GST-cyclins on Glutathion-Sepharose resin incubated with rat whole brain extract, 16 h, 4 °C; only the target purified
[11] = target: T4, recombinant GST-CCNI (human); assay: as above

Substance: CDK14, yeast two-hybrid fusion (from UniProt O94921 1-469)
binding [1]: binds
binding [2]: binds

Substance: CDK15, yeast two-hybrid fusion (from UniProt Q96Q40 1-435)
binding [1]: binds
binding [2]: binds

Substance: CDK16, yeast two-hybrid fusion (from UniProt Q00536 1-496)
binding [3]: binds
binding [4]: binds
binding [2]: binds

Substance: CDK-binding-deficient CDK6 mutant R60A, yeast two-hybrid fusion (from UniProt Q00534 2-326)
binding [2]: no binding

Substance: CDK17, yeast two-hybrid fusion (from UniProt Q00537 1-523)
binding [1]: binds
binding [4]: binds
binding [2]: binds

Substance: CDK5, yeast two-hybrid fusion (from UniProt Q00535 1-292)
binding [4]: binds
binding [2]: binds

Continued, in another order:

binding [5]: binds weakly
binding (CCNI-Flag (human)): binds weakly
Substance: CDK6, endogenous (human cells) (from UniProt Q00534 1-326)
binding [6]: binds

binding [7]: no binding
binding [2]: binds
Substance: CDK6, yeast two-hybrid fusion (from UniProt Q00534 1-326)

binding [8]: binds
binding [9]: binds
Substance: CDK16, endogenous (from UniProt Q00536 1-496)

binding [1]: binds
binding [4]: binds
binding [2]: binds
Substance: CDK18, yeast two-hybrid fusion (from UniProt Q07002 1-474)

binding [10]: binds
binding [11]: binds
Substance: CDK6, endogenous in rat whole brain extract (from UniProt F1MA87 1-326)

From article PMC10323892
